In patent publication US20110236504A1, “VERSATILE DISINFECTANT” (priority 2008, published 2011):

Test system: Staphylococcus aureus 209P and Escherichia coli 0-157 (mean values)
Experiment: Death rate over time, metal ion in purified water
Type: cell-based

## O.O.O.O.O.O.O.O=S(=O)([O-])[O-].[Ni+2] [Ni^2+, NiSO4•7H2O]
10 ppm, 1 min
  Death rate: 0%
10 ppm, 3 min
  Death rate: 0%
10 ppm, 5 min
  Death rate: 0%
10 ppm, 10 min
  Death rate: 5%
10 ppm, 15 min
  Death rate: 10%
10 ppm, 30 min
  Death rate: 15%
10 ppm, 60 min
  Death rate: 20%
10 ppm, 90 min
  Death rate: 30%
10 ppm, 120 min
  Death rate: 60%
50 ppm, 1 min
  Death rate: 0%
50 ppm, 3 min
  Death rate: 0%
50 ppm, 5 min
  Death rate: 0%
50 ppm, 10 min
  Death rate: 5%
50 ppm, 15 min
  Death rate: 15%
50 ppm, 30 min
  Death rate: 25%
50 ppm, 60 min
  Death rate: 35%
50 ppm, 90 min
  Death rate: 50%
50 ppm, 120 min
  Death rate: 70%
150 ppm, 1 min
  Death rate: 0%
150 ppm, 3 min
  Death rate: 0%
150 ppm, 5 min
  Death rate: 5%
150 ppm, 10 min
  Death rate: 10%
150 ppm, 15 min
  Death rate: 25%
150 ppm, 30 min
  Death rate: 35%
150 ppm, 60 min
  Death rate: 50%
150 ppm, 90 min
  Death rate: 70%
150 ppm, 120 min
  Death rate: 90%
300 ppm, 1 min
  Death rate: 0%
300 ppm, 3 min
  Death rate: 0%
300 ppm, 5 min
  Death rate: 10%
300 ppm, 10 min
  Death rate: 15%
300 ppm, 15 min
  Death rate: 40%
300 ppm, 30 min
  Death rate: 50%
300 ppm, 60 min
  Death rate: 75%
300 ppm, 90 min
  Death rate: 90%
300 ppm, 120 min
  Death rate: 100%

## O.O.O.O.O.O.[Cl-].[Cl-].[Co+2] [Co^2+, CoCl2•6H2O]
100 ppm, 1 min
  Death rate: 0%
100 ppm, 3 min
  Death rate: 0%
100 ppm, 5 min
  Death rate: 0%
100 ppm, 10 min
  Death rate: 0%
100 ppm, 15 min
  Death rate: 5%
100 ppm, 30 min
  Death rate: 10%
100 ppm, 60 min
  Death rate: 20%
100 ppm, 90 min
  Death rate: 30%
100 ppm, 120 min
  Death rate: 75%
200 ppm, 1 min
  Death rate: 0%
200 ppm, 3 min
  Death rate: 0%
200 ppm, 5 min
  Death rate: 0%
200 ppm, 10 min
  Death rate: 5%
200 ppm, 15 min
  Death rate: 10%
200 ppm, 30 min
  Death rate: 15%
200 ppm, 60 min
  Death rate: 25%
200 ppm, 90 min
  Death rate: 45%
200 ppm, 120 min
  Death rate: 85%
350 ppm, 1 min
  Death rate: 0%
350 ppm, 3 min
  Death rate: 0%
350 ppm, 5 min
  Death rate: 0%
350 ppm, 10 min
  Death rate: 10%
350 ppm, 15 min
  Death rate: 20%
350 ppm, 30 min
  Death rate: 25%
350 ppm, 60 min
  Death rate: 50%
350 ppm, 90 min
  Death rate: 65%
350 ppm, 120 min
  Death rate: 100%
500 ppm, 1 min
  Death rate: 0%
500 ppm, 3 min
  Death rate: 0%
500 ppm, 5 min
  Death rate: 0%
500 ppm, 10 min
  Death rate: 15%
500 ppm, 15 min
  Death rate: 20%
500 ppm, 30 min
  Death rate: 50%
500 ppm, 60 min
  Death rate: 70%
500 ppm, 90 min
  Death rate: 100%

## O=[N+]([O-])[O-].[Ag+] [Ag^+, AgNO3]
0.01 ppm, 1 min
  Death rate: 0%
0.01 ppm, 3 min
  Death rate: 0%
0.01 ppm, 5 min
  Death rate: 0%
0.01 ppm, 10 min
  Death rate: 15%
0.01 ppm, 15 min
  Death rate: 35%
0.01 ppm, 30 min
  Death rate: 70%
0.01 ppm, 60 min
  Death rate: 100%
0.1 ppm, 1 min
  Death rate: 0%
0.1 ppm, 3 min
  Death rate: 0%
0.1 ppm, 5 min
  Death rate: 0%
0.1 ppm, 10 min
  Death rate: 30%
0.1 ppm, 15 min
  Death rate: 50%
0.1 ppm, 30 min
  Death rate: 85%
0.1 ppm, 60 min
  Death rate: 100%
3 ppm, 1 min
  Death rate: 0%
3 ppm, 3 min
  Death rate: 10%
3 ppm, 5 min
  Death rate: 20%
3 ppm, 10 min
  Death rate: 40%
3 ppm, 15 min
  Death rate: 80%
3 ppm, 30 min
  Death rate: 100%
10 ppm, 1 min
  Death rate: 0%
10 ppm, 3 min
  Death rate: 25%
10 ppm, 5 min
  Death rate: 35%
10 ppm, 10 min
  Death rate: 50%
10 ppm, 15 min
  Death rate: 100%

## O.O.O.O.O.O=S(=O)([O-])[O-].[Cu+2] [Cu^2+, CuSO4•5H2O]
2 ppm, 1 min
  Death rate: 0%
2 ppm, 3 min
  Death rate: 0%
2 ppm, 5 min
  Death rate: 5%
2 ppm, 10 min
  Death rate: 10%
2 ppm, 15 min
  Death rate: 20%
2 ppm, 30 min
  Death rate: 35%
2 ppm, 60 min
  Death rate: 50%
2 ppm, 90 min
  Death rate: 60%
2 ppm, 120 min
  Death rate: 85%
20 ppm, 1 min
  Death rate: 0%
20 ppm, 3 min
  Death rate: 0%
20 ppm, 5 min
  Death rate: 10%
20 ppm, 10 min
  Death rate: 20%
20 ppm, 15 min
  Death rate: 35%
20 ppm, 30 min
  Death rate: 50%
20 ppm, 60 min
  Death rate: 70%
20 ppm, 90 min
  Death rate: 85%
20 ppm, 120 min
  Death rate: 100%
50 ppm, 1 min
  Death rate: 0%
50 ppm, 3 min
  Death rate: 0%
50 ppm, 5 min
  Death rate: 10%
50 ppm, 10 min
  Death rate: 30%
50 ppm, 15 min
  Death rate: 50%
50 ppm, 30 min
  Death rate: 70%
50 ppm, 60 min
  Death rate: 90%
50 ppm, 90 min
  Death rate: 100%
200 ppm, 1 min
  Death rate: 0%
200 ppm, 3 min
  Death rate: 10%
200 ppm, 5 min
  Death rate: 15%
200 ppm, 10 min
  Death rate: 40%
200 ppm, 15 min
  Death rate: 60%
200 ppm, 30 min
  Death rate: 80%
200 ppm, 60 min
  Death rate: 100%

## O.O.O.O.O.O.O.O=S(=O)([O-])[O-].[Zn+2] [Zn^2+, ZnSO4•7H2O]
5 ppm, 1 min
  Death rate: 0%
5 ppm, 3 min
  Death rate: 0%
5 ppm, 5 min
  Death rate: 0%
5 ppm, 10 min
  Death rate: 5%
5 ppm, 15 min
  Death rate: 10%
5 ppm, 30 min
  Death rate: 15%
5 ppm, 60 min
  Death rate: 25%
5 ppm, 90 min
  Death rate: 50%
5 ppm, 120 min
  Death rate: 80%
12 ppm, 1 min
  Death rate: 0%
12 ppm, 3 min
  Death rate: 0%
12 ppm, 5 min
  Death rate: 5%
12 ppm, 10 min
  Death rate: 10%
12 ppm, 15 min
  Death rate: 20%
12 ppm, 30 min
  Death rate: 25%
12 ppm, 60 min
  Death rate: 40%
12 ppm, 90 min
  Death rate: 65%
12 ppm, 120 min
  Death rate: 90%
100 ppm, 1 min
  Death rate: 0%
100 ppm, 3 min
  Death rate: 0%
100 ppm, 5 min
  Death rate: 5%
100 ppm, 10 min
  Death rate: 20%
100 ppm, 15 min
  Death rate: 30%
100 ppm, 30 min
  Death rate: 40%
100 ppm, 60 min
  Death rate: 60%
100 ppm, 90 min
  Death rate: 80%
100 ppm, 120 min
  Death rate: 100%
500 ppm, 1 min
  Death rate: 0%
500 ppm, 3 min
  Death rate: 0%
500 ppm, 5 min
  Death rate: 10%
500 ppm, 10 min
  Death rate: 25%
500 ppm, 15 min
  Death rate: 50%
500 ppm, 30 min
  Death rate: 65%
500 ppm, 60 min
  Death rate: 100%
